T1: RBFOX1 RRM RbFoxmut (Fox-RRM*) (Homo sapiens, UniProt Q9NWB1 109-208, R118D;E147R;N151S;E152T)
T1 sequence: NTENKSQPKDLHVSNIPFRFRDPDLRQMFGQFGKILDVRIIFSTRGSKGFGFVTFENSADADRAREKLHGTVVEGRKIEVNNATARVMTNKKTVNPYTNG

B1: UCCAUAU (DNA:RNA)
RNA: GGGAGACCGGAAUUCAGAUUGUCCUCCAUAUUUAAAUCCCGUCGUAGCCACCA
DNA 1: CAATCTGAATTCCGGTCTCCC
DNA 2: TGGTGGCTACGACGGGATT
B2: GUUUAUA (DNA:RNA)
RNA: GGGAGACCGGAAUUCAGAUUGUCCGUUUAUAUUAAAUCCCGUCGUAGCCACCA
DNA 1: CAATCTGAATTCCGGTCTCCC
DNA 2: TGGTGGCTACGACGGGATT
B3: UUCCUUU (DNA:RNA)
RNA: B1 RNA with C26U, A28C, A30U
DNA 1: CAATCTGAATTCCGGTCTCCC
DNA 2: TGGTGGCTACGACGGGATT
B4: UAACUUC (DNA:RNA)
RNA: B1 RNA with C26A, C27A, A28C, A30U, U31C
DNA 1: CAATCTGAATTCCGGTCTCCC
DNA 2: TGGTGGCTACGACGGGATT
B5: GUGGACG (DNA:RNA)
RNA: B2 RNA with U27G, U28G, U30C, A31G
DNA 1: CAATCTGAATTCCGGTCTCCC
DNA 2: TGGTGGCTACGACGGGATT
B6: UGCUUCU (DNA:RNA)
RNA: B1 RNA with C26G, A28U, A30C
DNA 1: CAATCTGAATTCCGGTCTCCC
DNA 2: TGGTGGCTACGACGGGATT
B7: CUGAAUC (DNA:RNA)
RNA: B2 RNA with G25C, U27G, U28A, A31C
DNA 1: CAATCTGAATTCCGGTCTCCC
DNA 2: TGGTGGCTACGACGGGATT
B8: CACAUGU (DNA:RNA)
RNA: B1 RNA with U25C, C26A, A30G
DNA 1: CAATCTGAATTCCGGTCTCCC
DNA 2: TGGTGGCTACGACGGGATT
B9: CGGUUCG (DNA:RNA)
RNA: B2 RNA with G25C, U26G, U27G, A29U, U30C, A31G
DNA 1: CAATCTGAATTCCGGTCTCCC
DNA 2: TGGTGGCTACGACGGGATT
B10: ACGCAUC (DNA:RNA)
RNA: B2 RNA with G25A, U26C, U27G, U28C, A31C
DNA 1: CAATCTGAATTCCGGTCTCCC
DNA 2: TGGTGGCTACGACGGGATT
B11: GACCCCA (DNA:RNA)
RNA: B2 RNA with U26A, U27C, U28C, A29C, U30C
DNA 1: CAATCTGAATTCCGGTCTCCC
DNA 2: TGGTGGCTACGACGGGATT
B12: UCACGCC (DNA:RNA)
RNA: B1 RNA with C27A, A28C, U29G, A30C, U31C
DNA 1: CAATCTGAATTCCGGTCTCCC
DNA 2: TGGTGGCTACGACGGGATT
B13: GCUGAGG (DNA:RNA)
RNA: B2 RNA with U26C, U28G, U30G, A31G
DNA 1: CAATCTGAATTCCGGTCTCCC
DNA 2: TGGTGGCTACGACGGGATT
B14: ACCCUCG (DNA:RNA)
RNA: B1 RNA with U25A, A28C, A30C, U31G
DNA 1: CAATCTGAATTCCGGTCTCCC
DNA 2: TGGTGGCTACGACGGGATT
B15: UCCCGGA (DNA:RNA)
RNA: B1 RNA with A28C, U29G, A30G, U31A
DNA 1: CAATCTGAATTCCGGTCTCCC
DNA 2: TGGTGGCTACGACGGGATT
B16: UAGUAAU (DNA:RNA)
RNA: B1 RNA with C26A, C27G, A28U, U29A
DNA 1: CAATCTGAATTCCGGTCTCCC
DNA 2: TGGTGGCTACGACGGGATT
B17: AGGUUCA (DNA:RNA)
RNA: B2 RNA with G25A, U26G, U27G, A29U, U30C
DNA 1: CAATCTGAATTCCGGTCTCCC
DNA 2: TGGTGGCTACGACGGGATT
B18: UUUAGCU (DNA:RNA)
RNA: B1 RNA with C26U, C27U, U29G, A30C
DNA 1: CAATCTGAATTCCGGTCTCCC
DNA 2: TGGTGGCTACGACGGGATT
B19: ACUUCGA (DNA:RNA)
RNA: B2 RNA with G25A, U26C, A29C, U30G
DNA 1: CAATCTGAATTCCGGTCTCCC
DNA 2: TGGTGGCTACGACGGGATT
B20: UACCACG (DNA:RNA)
RNA: B1 RNA with C26A, A28C, U29A, A30C, U31G
DNA 1: CAATCTGAATTCCGGTCTCCC
DNA 2: TGGTGGCTACGACGGGATT

Positions count from the first letter of the chain named. The list shows a part of the results.

For this assay, the target named is T1, RBFOX1 RRM RbFoxmut (Fox-RRM*). Description: EMSA; HiTS-Eq, 1 nM pool, 10 min; buffer printed only for the single-RNA assays: 10 mM Tris pH 7.5, 150 mM NaCl, 3.4 mM EDTA, 0.001% NP-40, 30 C. The conditions noted are these: tags: His6 N-terminal (pET28a); label: 5' 32P. The method in brief:
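These values rest on relative association constants, computed from read-count changes of each RNA species versus the control reaction and normalised to the cognate motif. Reads came from free RNA recovered by 8% native PAGE after purified RbFox RRM (wild type or mutant) at increasing concentrations was equilibrated for 10 min in 50 µL with 1 nM of a 5′-radiolabelled pool with 7 randomized nucleotides and DNA-annealed flanks.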
Background: Mobility shift assays separate free from complexed probe on a gel.
Take B1: the binding signal is 0.118 KA relative to UGCAUGU.

In the case of B2, the binding signal was 0.13 KA relative to UGCAUGU.

Regarding B3, the binding signal was 0.079 KA relative to UGCAUGU.

B4: the binding signal was 0.0597 KA relative to UGCAUGU.

Take B5: the binding signal was 0.109 KA relative to UGCAUGU.

Turning to B6, the binding signal is 0.137 KA relative to UGCAUGU.

Regarding B7, the binding signal was 0.315 KA relative to UGCAUGU.

For the molecule B8, the binding signal was 0.15 KA relative to UGCAUGU.

In the case of B9, the binding signal was 0.371 KA relative to UGCAUGU.

Take B10: the binding signal is 0.355 KA relative to UGCAUGU.

Regarding B11, the binding signal was 0.065 KA relative to UGCAUGU.

Regarding B12, the binding signal is 0.0909 KA relative to UGCAUGU.

For the molecule B13, the binding signal is 0.101 KA relative to UGCAUGU.

With B14, the binding signal was 0.0841 KA relative to UGCAUGU.

On to B15, for which the binding signal was 0.0511 KA relative to UGCAUGU.

Turning to B16, the binding signal is 0.094 KA relative to UGCAUGU.

B17: the binding signal is 0.118 KA relative to UGCAUGU.

As to B18, the binding signal is 0.111 KA relative to UGCAUGU.

In the case of B19, the binding signal is 0.0758 KA relative to UGCAUGU.

B20: the binding signal was 0.116 KA relative to UGCAUGU.
